First the molecules themselves.
B1: TPR 5TU (parent)
chain: GGAUCUUCUCGAUCUAACAAAAAAGACAAAUCUGCCACAAAGCUUGAGAGCAUCUUCGGAUGCAGAGGCGGCAGCCUUCGGUGGCGCGAUAGCGCCAACGUUCUCAACUAUGACACGCAAAACGCGUGCUCCGUUGAAUGGAGUUUAUCAUG

Variants at the floor of the assay are shown more often than the library holds them.

Variants of B1 are the subject of the data set. In words: polymerase ribozyme fitness, log enrichment relative to wild type (log ratio); higher = more active; in vitro selection for triplet polymerase activity. The method, boiled down:
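Both subunits of a heterodimeric triplet polymerase ribozyme were given their own mutant library, built by PCR and transcribed. Each library was annealed with a biotinylated primer, the partner subunit and triplets, incubated frozen at −7 °C, and its extended constructs gel-excised, captured on streptavidin beads and amplified by RT-PCR, all in one round done in triplicate. Fitness is the logarithm of genotype enrichment relative to wild-type enrichment, with replicates averaged by inverse-variance weighting. That logarithm is base 2, and Illumina-sequenced genotypes needed ≥10 input reads and ≥1 read per output.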
For the variant A3G C18U U56G G94A A110U A138U U139A, the “polymerase ribozyme fitness (log ratio)” value is not above -4.2.

Take A3U U6A A39G C96G G124U G141A: the “polymerase ribozyme fitness (log ratio)” value was -3.93.

For the variant A3C U6A A16G G50A A91C, the “polymerase ribozyme fitness (log ratio)” value is not above -4.2.

For the variant U4G A19C C36A A119C G133A, the “polymerase ribozyme fitness (log ratio)” value was not above -4.2.

For A3U U82C U101A, the “polymerase ribozyme fitness (log ratio)” value is -0.128.

As for A3U A17C A89U C132U, the “polymerase ribozyme fitness (log ratio)” value is -1.09.

For C5A C32G C57U U61A U82C G84C C103G U127A, the “polymerase ribozyme fitness (log ratio)” value is not above -4.2.

Take A3C U78G G94A A97U: the “polymerase ribozyme fitness (log ratio)” value is not above -4.2.

As for U4G U6G C36U C57G G58U C93G C105U, the “polymerase ribozyme fitness (log ratio)” value is not above -4.2.

As to U4C C36U A49G A66U G83A C85G G88A C114U U146G, the “polymerase ribozyme fitness (log ratio)” value is not above -4.2.

A3U G83C: the “polymerase ribozyme fitness (log ratio)” value is -0.632.

Take U4G A47U G58C C93G: the “polymerase ribozyme fitness (log ratio)” value was -4.

Consider C5A A40C G50U C57U G81C C95A U104G C116G G133A, for which the “polymerase ribozyme fitness (log ratio)” value was not above -4.2.

Take C5A A17G C36A U53G U56A A91G: the “polymerase ribozyme fitness (log ratio)” value was not above -4.2.

Regarding A3G A64C G65A G70A U82C G84A, the “polymerase ribozyme fitness (log ratio)” value is not above -4.2.

Regarding U4A C18U C79G A91U A142C U148C, the “polymerase ribozyme fitness (log ratio)” value is not above -4.2.

For A3G A91U, the “polymerase ribozyme fitness (log ratio)” value is not above -4.2.

As for C5A A20C A37U A39G G59C A66G G88U, the “polymerase ribozyme fitness (log ratio)” value is not above -4.2.

As to A3C U44A C93U C99G C131U G136A U139A, the “polymerase ribozyme fitness (log ratio)” value is not above -4.2.

For the variant U4C G42C C85G G92A G94A U101A A115U A142C U148G, the “polymerase ribozyme fitness (log ratio)” value is not above -4.2.

Turning to A3U A30G U104C C105A C114G A115G A122G C129A, the “polymerase ribozyme fitness (log ratio)” value was not above -4.2.

As for U4C G50C A60U G62C C93G C108U C118U U135G A137G U139G, the “polymerase ribozyme fitness (log ratio)” value was not above -4.2.

With U4C G46A A47U A66G C87G, the “polymerase ribozyme fitness (log ratio)” value was not above -4.2.

Consider U4A C79G C93U U146C A150C, for which the “polymerase ribozyme fitness (log ratio)” value was not above -4.2.

Consider A3G C116U G124A A142G, for which the “polymerase ribozyme fitness (log ratio)” value was -2.6.

As to U4C C5A C87A A91G U145A, the “polymerase ribozyme fitness (log ratio)” value is not above -4.2.

As for C5A A49U C51U A52C A64C G94A A121G, the “polymerase ribozyme fitness (log ratio)” value is not above -4.2.

As for C5A G42A C54A U61G G92U C149A, the “polymerase ribozyme fitness (log ratio)” value is not above -4.2.

With U4A C5G A22U G25U A30U C63U A66C G143U, the “polymerase ribozyme fitness (log ratio)” value was not above -4.2.

In the case of A3U G34A A49G A89U C95U U102A U148A, the “polymerase ribozyme fitness (log ratio)” value is not above -4.2.

On to U4G A47C C85U A110U C118A C129G A137G A142C, for which the “polymerase ribozyme fitness (log ratio)” value is not above -4.2.

Take A3U C10U U56A C96U C116U G143A: the “polymerase ribozyme fitness (log ratio)” value was -3.56.

As for C5A A16U A52G A106G, the “polymerase ribozyme fitness (log ratio)” value was -3.09.

Regarding U4G U31C C35U G68A A115G C132G, the “polymerase ribozyme fitness (log ratio)” value was not above -4.2.

With U4A C51U G94C A98U, the “polymerase ribozyme fitness (log ratio)” value is -1.63.

For U4A U44A U82A G92A, the “polymerase ribozyme fitness (log ratio)” value is not above -4.2.

A3U A47C C57A: the “polymerase ribozyme fitness (log ratio)” value was -0.307.

For A3U U6G C57G C87U C149G, the “polymerase ribozyme fitness (log ratio)” value is not above -4.2.

With U4G U31G G50C G68A C75A G86U C95U U101A, the “polymerase ribozyme fitness (log ratio)” value was not above -4.2.

With A3G C18A C93G C123U C131U, the “polymerase ribozyme fitness (log ratio)” value is -1.32.

With C5A A23U C36U U82A U90G G100U, the “polymerase ribozyme fitness (log ratio)” value was not above -4.2.

As for A3G C14G U61G G71A G86C A91C C105G C114G G143A U145A, the “polymerase ribozyme fitness (log ratio)” value was not above -4.2.

On to A3G C14G C38G, for which the “polymerase ribozyme fitness (log ratio)” value was not above -4.2.

Consider A3G A21U C85U G112U, for which the “polymerase ribozyme fitness (log ratio)” value is not above -4.2.

With C5A A12U C32G U33G G94C U148G A150U, the “polymerase ribozyme fitness (log ratio)” value is not above -4.2.

As for A3U G67U A91G C99U G124U, the “polymerase ribozyme fitness (log ratio)” value was not above -4.2.

In the case of U4G C8G A23C A52G C54G G74C, the “polymerase ribozyme fitness (log ratio)” value is not above -4.2.

On to U4A A21U A30U G50C G92U U109G U127G U139C, for which the “polymerase ribozyme fitness (log ratio)” value was not above -4.2.

Turning to U4A A29G U61A G94U G126U G133U U151G, the “polymerase ribozyme fitness (log ratio)” value was not above -4.2.

Turning to A3U G25C A64C U78G A91U, the “polymerase ribozyme fitness (log ratio)” value is not above -4.2.

As for A3U A19U C57U G62U C69U C85U C99G U130C G136U U146G, the “polymerase ribozyme fitness (log ratio)” value was not above -4.2.

Turning to C5A G86C G92U, the “polymerase ribozyme fitness (log ratio)” value is -3.93.

With U4G C10A U56A G133U G143U, the “polymerase ribozyme fitness (log ratio)” value was not above -4.2.

On to U4G A39U C75U U77C G84U C105G, for which the “polymerase ribozyme fitness (log ratio)” value was not above -4.2.

Regarding A3U A20C A22C A26U A37G G84C A98C C118U C123U C132U, the “polymerase ribozyme fitness (log ratio)” value is not above -4.2.

As for U4G A21G A52U C85G C95G A137C, the “polymerase ribozyme fitness (log ratio)” value is not above -4.2.

Regarding A3U G25C C32G A37C U56C G68C G74A C87U A142C, the “polymerase ribozyme fitness (log ratio)” value was not above -4.2.

For the variant U4C C18G C32U A52C G59U A91U, the “polymerase ribozyme fitness (log ratio)” value was not above -4.2.

Turning to U4A C18G G34C G48C C54U U56A G94U U134A A137G, the “polymerase ribozyme fitness (log ratio)” value was not above -4.2.

Regarding U4G G42U G92C, the “polymerase ribozyme fitness (log ratio)” value was not above -4.2.

Regarding A3G C10G A17U C57U C114A A121C, the “polymerase ribozyme fitness (log ratio)” value is not above -4.2.

Consider A3G C8G A30G G48C A64C C87G A137G, for which the “polymerase ribozyme fitness (log ratio)” value was not above -4.2.

As for U4A A16U A113C A115U, the “polymerase ribozyme fitness (log ratio)” value is not above -4.2.

For A3U A23G U56A C75U A89U, the “polymerase ribozyme fitness (log ratio)” value is not above -4.2.

Turning to U4C A20U U33C G59C C87A C132A G133A G136U, the “polymerase ribozyme fitness (log ratio)” value was not above -4.2.

For U4G C75A C76U C95U C132G, the “polymerase ribozyme fitness (log ratio)” value was not above -4.2.

As for A3G C38A G124C U134G G136U U146G, the “polymerase ribozyme fitness (log ratio)” value was not above -4.2.

In the case of A3U A28U A41C A73U C79G G88A, the “polymerase ribozyme fitness (log ratio)” value was not above -4.2.

Take U4C C14A C93G: the “polymerase ribozyme fitness (log ratio)” value was not above -4.2.

Take U4A A17G A28C C38U A60U G94U A120C: the “polymerase ribozyme fitness (log ratio)” value is not above -4.2.

A3U G50U C95G A142C U148A: the “polymerase ribozyme fitness (log ratio)” value was not above -4.2.

As to U4G A21C C93G, the “polymerase ribozyme fitness (log ratio)” value is -1.92.

For the variant A3U C5A A39U A49U G59A G84A C103U U127C U139A, the “polymerase ribozyme fitness (log ratio)” value was not above -4.2.

A3G G86A: the “polymerase ribozyme fitness (log ratio)” value is -1.52.

For the variant U4C A22U A73U C96G A120G, the “polymerase ribozyme fitness (log ratio)” value is -2.21.

In the case of A3U A52C G58A G81A U109G U127C, the “polymerase ribozyme fitness (log ratio)” value is not above -4.2.

On to U4G A41U A91C A97U, for which the “polymerase ribozyme fitness (log ratio)” value is not above -4.2.

With A3U U9G A30U C54G C87G U90A C96G U134G, the “polymerase ribozyme fitness (log ratio)” value was not above -4.2.

In the case of A3C U7G A17C C54G G67A U77C C87A C99U U130G, the “polymerase ribozyme fitness (log ratio)” value was not above -4.2.

For A3C U45A G67U G71C G80C C95A C103A, the “polymerase ribozyme fitness (log ratio)” value was not above -4.2.

As to U4C U31C C76G C116G, the “polymerase ribozyme fitness (log ratio)” value was not above -4.2.

For U4A G25U C35U C87A C93G, the “polymerase ribozyme fitness (log ratio)” value is not above -4.2.

With A3U U7A C8A C63U U90G, the “polymerase ribozyme fitness (log ratio)” value was not above -4.2.

Values taken from the RNAGym collection of RNA variant scans (doi:10.1073/pnas.2313332121).
